Test results published in the supplement of paper PMC11876631.
± gives the standard deviation of the averaged measurements. Laboratory Escherichia coli strains with one amino-acid change in an essential protein, pooled on minimal glucose agar with carbenicillin or gentamicin at twice the control MIC (plus kanamycin and chloramphenicol for the plasmids), 48 h. Fold change of barcode share against drug-free plates; higher = less susceptible. Active = above 20 in both replicates (the paper's putatively resistant). '<' = one read or none on drug, '>' = one read or none on a drug-free plate. Shares are relative, so most strains fall below 1 when a few take over. Listed are strains with at least 15 reads on both drug-free plates, and hits; most hits rest on fewer reference reads. Replicate rank correlation about 0.5. Edits are read from barcodes.

B1: metL V126A (protein)
chain: MSVIAQAGAKGRQLHKFGGSSLADVKCYLRVAGIMAEYSQPDDMMVVSAAGSTTNQLINWLKLSQTDRLSAHQVQQTLRRYQCDLISGLLPAEEADSLISAFVSDLERLAALLDSGINDAVYAEVAGHGEVWSARLMSAVLNQQGLPAAWLDAREFLRAERAAQPQVDEGLSYPLLQQLLVQHPGKRLVVTGFISRNNAGETVLLGRNGSDYSATQIGALAGVSRVTIWSDVAGVYSADPRKVKDACLLPLLRLDEASELARLAAPVLHARTLQPVSGSEIDLQLRCSYTPDQGSTRIERVLASGTGARIVTSHDDVCLIEFQVPASQDFKLAHKEIDQILKRAQVRPLAVGVHNDRQLLQFCYTSEVADSALKILDEAGLPGELRLRQGLALVAMVGAGVTRNPLHCHRFWQQLKGQPVEFTWQSDDGISLVAVLRTGPTESLIQGLHQSVFRAEKRIGLVLFGKGNIGSRWLELFAREQSTLSARTGFEFVLAGVVDSRRSLLSYDGLDASRALAFFNDEAVEQDEESLFLWMRAHPYDDLVVLDVTASQQLADQYLDFASHGFHVISANKLAGASDSNKYRQIHDAFEKTGRHWLYNATVGAGLPINHTVRDLIDSGDTILSISGIFSGTLSWLFLQFDGSVPFTELVDQAWQQGLTEPDPRDDLSGKDVMRKLVILAREAGYNIEPDQVRVESLVPAHCEGGSIDHFFENGDELNEQMVQRLEAAREMGLVLRYVARFDANGKARVGVEAVREDHPLASLLPCDNVFAIESRWYRDNPLVIRGPGAGRDVTAGAIQSDINRLAQLL
B2: metL V126P (protein)
chain: MSVIAQAGAKGRQLHKFGGSSLADVKCYLRVAGIMAEYSQPDDMMVVSAAGSTTNQLINWLKLSQTDRLSAHQVQQTLRRYQCDLISGLLPAEEADSLISAFVSDLERLAALLDSGINDAVYAEVPGHGEVWSARLMSAVLNQQGLPAAWLDAREFLRAERAAQPQVDEGLSYPLLQQLLVQHPGKRLVVTGFISRNNAGETVLLGRNGSDYSATQIGALAGVSRVTIWSDVAGVYSADPRKVKDACLLPLLRLDEASELARLAAPVLHARTLQPVSGSEIDLQLRCSYTPDQGSTRIERVLASGTGARIVTSHDDVCLIEFQVPASQDFKLAHKEIDQILKRAQVRPLAVGVHNDRQLLQFCYTSEVADSALKILDEAGLPGELRLRQGLALVAMVGAGVTRNPLHCHRFWQQLKGQPVEFTWQSDDGISLVAVLRTGPTESLIQGLHQSVFRAEKRIGLVLFGKGNIGSRWLELFAREQSTLSARTGFEFVLAGVVDSRRSLLSYDGLDASRALAFFNDEAVEQDEESLFLWMRAHPYDDLVVLDVTASQQLADQYLDFASHGFHVISANKLAGASDSNKYRQIHDAFEKTGRHWLYNATVGAGLPINHTVRDLIDSGDTILSISGIFSGTLSWLFLQFDGSVPFTELVDQAWQQGLTEPDPRDDLSGKDVMRKLVILAREAGYNIEPDQVRVESLVPAHCEGGSIDHFFENGDELNEQMVQRLEAAREMGLVLRYVARFDANGKARVGVEAVREDHPLASLLPCDNVFAIESRWYRDNPLVIRGPGAGRDVTAGAIQSDINRLAQLL
B3: metL V126D (protein)
chain: MSVIAQAGAKGRQLHKFGGSSLADVKCYLRVAGIMAEYSQPDDMMVVSAAGSTTNQLINWLKLSQTDRLSAHQVQQTLRRYQCDLISGLLPAEEADSLISAFVSDLERLAALLDSGINDAVYAEVDGHGEVWSARLMSAVLNQQGLPAAWLDAREFLRAERAAQPQVDEGLSYPLLQQLLVQHPGKRLVVTGFISRNNAGETVLLGRNGSDYSATQIGALAGVSRVTIWSDVAGVYSADPRKVKDACLLPLLRLDEASELARLAAPVLHARTLQPVSGSEIDLQLRCSYTPDQGSTRIERVLASGTGARIVTSHDDVCLIEFQVPASQDFKLAHKEIDQILKRAQVRPLAVGVHNDRQLLQFCYTSEVADSALKILDEAGLPGELRLRQGLALVAMVGAGVTRNPLHCHRFWQQLKGQPVEFTWQSDDGISLVAVLRTGPTESLIQGLHQSVFRAEKRIGLVLFGKGNIGSRWLELFAREQSTLSARTGFEFVLAGVVDSRRSLLSYDGLDASRALAFFNDEAVEQDEESLFLWMRAHPYDDLVVLDVTASQQLADQYLDFASHGFHVISANKLAGASDSNKYRQIHDAFEKTGRHWLYNATVGAGLPINHTVRDLIDSGDTILSISGIFSGTLSWLFLQFDGSVPFTELVDQAWQQGLTEPDPRDDLSGKDVMRKLVILAREAGYNIEPDQVRVESLVPAHCEGGSIDHFFENGDELNEQMVQRLEAAREMGLVLRYVARFDANGKARVGVEAVREDHPLASLLPCDNVFAIESRWYRDNPLVIRGPGAGRDVTAGAIQSDINRLAQLL
B4: metL V126Q (protein)
chain: MSVIAQAGAKGRQLHKFGGSSLADVKCYLRVAGIMAEYSQPDDMMVVSAAGSTTNQLINWLKLSQTDRLSAHQVQQTLRRYQCDLISGLLPAEEADSLISAFVSDLERLAALLDSGINDAVYAEVQGHGEVWSARLMSAVLNQQGLPAAWLDAREFLRAERAAQPQVDEGLSYPLLQQLLVQHPGKRLVVTGFISRNNAGETVLLGRNGSDYSATQIGALAGVSRVTIWSDVAGVYSADPRKVKDACLLPLLRLDEASELARLAAPVLHARTLQPVSGSEIDLQLRCSYTPDQGSTRIERVLASGTGARIVTSHDDVCLIEFQVPASQDFKLAHKEIDQILKRAQVRPLAVGVHNDRQLLQFCYTSEVADSALKILDEAGLPGELRLRQGLALVAMVGAGVTRNPLHCHRFWQQLKGQPVEFTWQSDDGISLVAVLRTGPTESLIQGLHQSVFRAEKRIGLVLFGKGNIGSRWLELFAREQSTLSARTGFEFVLAGVVDSRRSLLSYDGLDASRALAFFNDEAVEQDEESLFLWMRAHPYDDLVVLDVTASQQLADQYLDFASHGFHVISANKLAGASDSNKYRQIHDAFEKTGRHWLYNATVGAGLPINHTVRDLIDSGDTILSISGIFSGTLSWLFLQFDGSVPFTELVDQAWQQGLTEPDPRDDLSGKDVMRKLVILAREAGYNIEPDQVRVESLVPAHCEGGSIDHFFENGDELNEQMVQRLEAAREMGLVLRYVARFDANGKARVGVEAVREDHPLASLLPCDNVFAIESRWYRDNPLVIRGPGAGRDVTAGAIQSDINRLAQLL
B5: metL M137A (protein)
chain: MSVIAQAGAKGRQLHKFGGSSLADVKCYLRVAGIMAEYSQPDDMMVVSAAGSTTNQLINWLKLSQTDRLSAHQVQQTLRRYQCDLISGLLPAEEADSLISAFVSDLERLAALLDSGINDAVYAEVVGHGEVWSARLASAVLNQQGLPAAWLDAREFLRAERAAQPQVDEGLSYPLLQQLLVQHPGKRLVVTGFISRNNAGETVLLGRNGSDYSATQIGALAGVSRVTIWSDVAGVYSADPRKVKDACLLPLLRLDEASELARLAAPVLHARTLQPVSGSEIDLQLRCSYTPDQGSTRIERVLASGTGARIVTSHDDVCLIEFQVPASQDFKLAHKEIDQILKRAQVRPLAVGVHNDRQLLQFCYTSEVADSALKILDEAGLPGELRLRQGLALVAMVGAGVTRNPLHCHRFWQQLKGQPVEFTWQSDDGISLVAVLRTGPTESLIQGLHQSVFRAEKRIGLVLFGKGNIGSRWLELFAREQSTLSARTGFEFVLAGVVDSRRSLLSYDGLDASRALAFFNDEAVEQDEESLFLWMRAHPYDDLVVLDVTASQQLADQYLDFASHGFHVISANKLAGASDSNKYRQIHDAFEKTGRHWLYNATVGAGLPINHTVRDLIDSGDTILSISGIFSGTLSWLFLQFDGSVPFTELVDQAWQQGLTEPDPRDDLSGKDVMRKLVILAREAGYNIEPDQVRVESLVPAHCEGGSIDHFFENGDELNEQMVQRLEAAREMGLVLRYVARFDANGKARVGVEAVREDHPLASLLPCDNVFAIESRWYRDNPLVIRGPGAGRDVTAGAIQSDINRLAQLL
B6: metL V126W (protein)
chain: MSVIAQAGAKGRQLHKFGGSSLADVKCYLRVAGIMAEYSQPDDMMVVSAAGSTTNQLINWLKLSQTDRLSAHQVQQTLRRYQCDLISGLLPAEEADSLISAFVSDLERLAALLDSGINDAVYAEVWGHGEVWSARLMSAVLNQQGLPAAWLDAREFLRAERAAQPQVDEGLSYPLLQQLLVQHPGKRLVVTGFISRNNAGETVLLGRNGSDYSATQIGALAGVSRVTIWSDVAGVYSADPRKVKDACLLPLLRLDEASELARLAAPVLHARTLQPVSGSEIDLQLRCSYTPDQGSTRIERVLASGTGARIVTSHDDVCLIEFQVPASQDFKLAHKEIDQILKRAQVRPLAVGVHNDRQLLQFCYTSEVADSALKILDEAGLPGELRLRQGLALVAMVGAGVTRNPLHCHRFWQQLKGQPVEFTWQSDDGISLVAVLRTGPTESLIQGLHQSVFRAEKRIGLVLFGKGNIGSRWLELFAREQSTLSARTGFEFVLAGVVDSRRSLLSYDGLDASRALAFFNDEAVEQDEESLFLWMRAHPYDDLVVLDVTASQQLADQYLDFASHGFHVISANKLAGASDSNKYRQIHDAFEKTGRHWLYNATVGAGLPINHTVRDLIDSGDTILSISGIFSGTLSWLFLQFDGSVPFTELVDQAWQQGLTEPDPRDDLSGKDVMRKLVILAREAGYNIEPDQVRVESLVPAHCEGGSIDHFFENGDELNEQMVQRLEAAREMGLVLRYVARFDANGKARVGVEAVREDHPLASLLPCDNVFAIESRWYRDNPLVIRGPGAGRDVTAGAIQSDINRLAQLL
B7: metK L186Q (protein)
chain: MAKHLFTSESVSEGHPDKIADQISDAVLDAILEQDPKARVACETYVKTGMVLVGGEITTSAWVDIEEITRNTVREIGYVHSDMGFDANSCAVLSAIGKQSPDINQGVDRADPLEQGAGDQGLMFGYATNETDVLMPAPITYAHRLVQRQAEVRKNGTLPWLRPDAKSQVTFQYDDGKIVGIDAVVQSTQHSEEIDQKSLQEAVMEEIIKPILPAEWLTSATKFFINPTGRFVIGGPMGDCGLTGRKIIVDTYGGMARHGGGAFSGKDPSKVDRSAAYAARYVAKNIVAAGLADRCEIQVSYAIGVAEPTSIMVETFGTEKVPSEQLTLLVREFFDLRPYGLIQMLDLLHPIYKETAAYGHFGREHFPWEKTDKAQLLRDAAGLK

target: Escherichia coli (laboratory strain); assay: barcode share on antibiotic plates over drug-free plates; higher = less susceptible; settings: antibiotic: carbenicillin; 2× MIC (3.1 µg/mL)
Method: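 A pool of E. coli strains, each edited to carry one amino-acid change in an essential protein, was grown for 48 h on minimal glucose agar with or without antibiotic; strain barcodes were sequenced; mean of two replicates.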

| Protein | fold change of barcode share |
| --- | --- |
| B1 | 0.184 ± 0.016 |
| B2 | 0.294 ± 0.073 |
| B3 | 0.438 ± 0.17 |
| B4 | 0.14 ± 0.0041 |
| B5 | 0.816 ± 0.23 |
| B6 | 0.489 ± 0.23 |
| B7 | 0.816 ± 0.14 |

same assay, conditions: antibiotic: gentamicin; 2× MIC (MIC 0.45 µg/mL)

| Protein | fold change of barcode share |
| --- | --- |
| B1 | 0.0101 ± 0.0077 |
| B2 | 0.0069 ± 0.0049 |
| B3 | < 0.00333 |
| B4 | < 0.00464 |
| B5 | 0.0132 ± 0.013 |
| B6 | < 0.00584 |
| B7 | 0.00516 ± 0.0035 |
